# Results: article PMC4336329 (PLoS ONE, 2015)
# The whole screen tested about 310,000 compounds, of which about 2,200 (0.71%) showed an effect of 50% or more. Effects have a minus sign here. The list shows a part of the results.
# Target: human ether-à-go-go-related gene (hERG) potassium channel (human, UniProt Q12809)
# Test: primary screen, population patch clamp on CHO cells stably expressing hERG
# human ether-à-go-go-related gene (hERG) potassium channel, sequence (Q12809 whole entry, looked up): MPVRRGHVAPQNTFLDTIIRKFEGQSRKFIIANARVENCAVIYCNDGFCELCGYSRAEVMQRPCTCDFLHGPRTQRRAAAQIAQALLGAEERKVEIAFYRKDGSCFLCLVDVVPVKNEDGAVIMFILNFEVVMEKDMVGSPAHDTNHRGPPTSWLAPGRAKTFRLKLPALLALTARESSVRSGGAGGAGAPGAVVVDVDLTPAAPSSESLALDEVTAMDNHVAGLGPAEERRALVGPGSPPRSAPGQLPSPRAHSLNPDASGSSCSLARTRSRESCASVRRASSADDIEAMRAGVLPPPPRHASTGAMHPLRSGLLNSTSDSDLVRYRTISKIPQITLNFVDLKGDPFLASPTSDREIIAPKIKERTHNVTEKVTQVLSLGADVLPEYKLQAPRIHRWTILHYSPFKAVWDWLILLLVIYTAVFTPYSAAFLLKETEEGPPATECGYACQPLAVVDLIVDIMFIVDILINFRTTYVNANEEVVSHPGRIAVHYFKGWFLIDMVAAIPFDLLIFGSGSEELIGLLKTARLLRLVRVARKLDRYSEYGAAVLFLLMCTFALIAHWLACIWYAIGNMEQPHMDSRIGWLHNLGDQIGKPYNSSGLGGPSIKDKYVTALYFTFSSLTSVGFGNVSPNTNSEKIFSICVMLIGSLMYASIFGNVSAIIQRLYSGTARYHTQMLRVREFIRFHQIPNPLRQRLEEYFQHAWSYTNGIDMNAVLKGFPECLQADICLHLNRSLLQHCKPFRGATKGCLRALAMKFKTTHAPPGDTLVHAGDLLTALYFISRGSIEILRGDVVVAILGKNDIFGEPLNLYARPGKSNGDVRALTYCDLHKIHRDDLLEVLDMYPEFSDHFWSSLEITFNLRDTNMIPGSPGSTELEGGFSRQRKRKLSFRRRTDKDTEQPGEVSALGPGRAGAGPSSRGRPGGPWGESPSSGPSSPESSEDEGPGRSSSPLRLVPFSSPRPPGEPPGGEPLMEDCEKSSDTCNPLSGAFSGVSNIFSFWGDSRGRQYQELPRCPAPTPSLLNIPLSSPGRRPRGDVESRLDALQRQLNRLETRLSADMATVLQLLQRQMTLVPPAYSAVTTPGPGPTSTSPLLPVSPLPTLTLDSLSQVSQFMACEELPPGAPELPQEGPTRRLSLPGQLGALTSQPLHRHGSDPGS
row,Compound,"hERG current change (%, negative = inhibition) at 1uM [%]"
1,CN(CCO)S(=O)(=O)c1ccc2c(c1)C(=NNC(N)=O)c1cc(S(=O)(=O)N(C)CCO)ccc1-2,9.96
2,NC(=O)OCCSc1nnc(-c2cccc(C(N)=S)c2)o1,5.22
3,O=C1NC(=Nc2ccccc2)c2ccc([N+](=O)[O-])cc21,9.19
4,COc1ccc(CCc2nnc(CCC(=O)NCCc3ncccc3C)o2)cc1,3.99
5,COc1ccc(OCCn2c(C)c(/C=N/n3cnnc3)c3ccccc32)cc1,4.76
6,O=[N+]([O-])c1ccc(N2CCN(S(=O)(=O)c3ccc4ccccc4c3)CC2)cc1NCC1CCCO1 (stereo not shown),15.4
7,CCn1c(C)nc2cc(C(=O)NNC(=O)Nc3ccc(Cl)cc3)ccc21,3.14
8,CN(C)Cc1ccccc1Sc1ccccc1Br,-1.66
9,COc1ccccc1NC(=O)CSc1ccc(-c2ccc(-n3ccnc3)cc2)nn1,2.72
10,Cc1ccc(CN(CC(=O)NCC2CCCO2)S(=O)(=O)c2ccc(C)cc2)cc1 (stereo not shown),11.9
11,Cn1cccc1/C=N/N1CCN(Cc2ccccc2)CC1,8.09
12,Cc1ccc(NC(=O)C2C3C=CC4(O3)C2C(=O)N(CCCN2CCCC2)C4C(=O)NC2CCCCC2)cc1Cl (stereo not shown),18.6
13,CCOC(=O)C(NC(=O)Nc1ccc(C(N)=O)cc1)(c1ccccc1)C(F)(F)F (stereo not shown),0.733
14,CCC(C(=O)Nc1ccc(C(=O)O)cc1NC(=O)C(CC)c1ccccc1)c1ccccc1 (stereo not shown),12.2
15,O=C(O)C1Cc2ccccc2N2CCCC12 (stereo not shown),15.6
16,CCOc1ccc(/C=C2\SC(=S)N(NS(=O)(=O)c3ccccc3)C2=O)cc1OC,6
17,COc1ccc(Cc2nnc(NC(=O)c3cc(OC)c(OC)c(OC)c3)s2)cc1,10.9
18,COc1ccc(C(=O)/C=C/c2ccc(F)cc2)c(OC(=O)c2ccc([N+](=O)[O-])cc2)c1,10.2
19,COc1ccc(-n2cnnc2SCC(=O)Nc2cccc(S(=O)(=O)N3CCCCC3)c2)cc1,2.72
20,Cc1cc(NC(=O)c2cc(Cl)ccc2Cl)no1,11.6
21,Cc1ccccc1OCC(=O)Nc1ccc(Cc2ccncc2)cc1,12
22,COC(=O)c1ccccc1NC(=S)N(C)C,8.26

row,Compound,"hERG current change (%, negative = inhibition) at 1uM [%]"
1,O=C1C2C3C=CC(CC3)C2C(=O)N1c1ccccc1 (stereo not shown),8.92
2,CC(C)C(OC(=O)C1CCCO1)C(=O)NC1CCCC1 (stereo not shown),3.19
3,COc1ccc(N(CC(=O)N2CCN(C)CC2)S(C)(=O)=O)cc1OC,10.3
4,CCN1CCN(CCNC(=O)CSCc2nc(-c3ccc(OC)c(OC)c3)oc2C)CC1,8.51
5,COc1ccc(N2CCN(C(=O)CNC(=O)c3ccccc3Cl)CC2)cc1,12.4
6,CC(=O)[O-].Cc1cc(C)c(S(=O)(=O)n2cc(C(C)C([NH3+])C(=O)O)c3ccccc32)c(C)c1 (stereo not shown),11.5
7,C/C(=N\N(Cc1ccccc1)c1ccccc1)c1cccnc1,9.08
8,COc1cc(OC)c(C(=O)Nc2ccccc2-c2ccccc2)cc1OC,0.123
9,COc1ccc(NC(=O)N2CCCCCC2)c(OC)c1,10.7
10,O=C(CSCc1ccccc1)Nc1ccc(S(=O)(=O)Nc2ncccn2)cc1,6.31
11,CCC1CCCCN1CCCNC(=O)Cn1c(=O)c2cccn2c2cccnc21 (stereo not shown),15.8
12,COCOc1cc(O)c(C(=O)/C=C/c2ccc(OCOC)c(OCOC)c2)c(OCOC)c1,8.03
13,O=C(O)C1C2C=CC(O2)C1C(=O)NCCc1cccc(Cl)c1 (stereo not shown),15.9
14,C=CCn1c(SC)nnc1C1COc2ccccc2O1 (stereo not shown),-7.25
15,O=C(NCCC(=O)N(Cc1ccco1)Cc1cccs1)c1ccccc1Cl,6.66
16,CCOC(=O)CSc1ccccn1,12.4
17,COc1ccc(Cc2nc3ccc(C(=O)N(C)CCn4ccnc4)cc3o2)cc1OC,9.8
18,CN(C)C(/C=C/Nc1cccc([N+](=O)[O-])c1)=C(C#N)C#N,2.57
19,O=C(Cc1cccs1)NCC1CCCO1 (stereo not shown),12.3
20,O=C(Cc1cccs1)N/N=C/C(Cl)=C/c1ccccc1,16
21,CCc1nnc(NC(=O)c2cc(-c3ccccn3)nc3ccc(Br)cc23)s1,9.56
22,COCCn1c(SCC(=O)NN2C(=O)NC(C)(c3ccccc3)C2=O)nnc1-c1ccncc1 (stereo not shown),9.42

row,Compound,"hERG current change (%, negative = inhibition) at 1uM [%]"
1,Cc1ccc(CC(=O)NCc2ccc(Cl)cc2)cc1,10
2,Cc1c(-c2nnc(-c3ccc(C(F)(F)F)cc3)o2)cnn1-c1ccccc1,24.5
3,COC(=O)COc1ccc(S(=O)(=O)NCc2ccc3c(c2)OCO3)cc1C,8.88
4,O=C(CCCN1C(=O)c2cccc3cccc(c23)C1=O)NCc1cccs1,13.4
5,COc1cc(C(=O)OCC(=O)NCCN2C(=O)CSC2=O)ccc1OCc1c(C)noc1C,10.4
6,CCCC1(c2ccccc2)NC(=O)N(CCN2C(=O)c3ccccc3C2=O)C1=O (stereo not shown),-3.1
7,CCN(CC)CCn1c(N)cc(=O)[nH]c1=O,-2.3
8,O=C(O)CCCC(=O)Nc1ccc(Oc2cccc(C(F)(F)F)c2)nc1,14.6
9,O=C(CNC(=S)N(Cc1ccccc1F)C1CCCCC1)NCCCN1CCOCC1,-6.06
10,Cc1ccc(C)c(S(=O)(=O)N2CCN(CC(=O)NC(=O)NCc3ccco3)CC2)c1,-8.25
11,N#C/C(=C\c1cn[nH]c1-c1ccccc1Br)C(=O)O,6.43
12,Cc1ccc(C(=O)NC2CCN(C(=O)Nc3ccc(F)cc3)CC2)cc1,8.68
13,CCOc1cc2ccccc2cc1C(=O)Nc1ccccn1,9.93
14,COc1cc(C(=O)NC(=S)Nc2csc(-c3ccc(F)cc3)n2)cc(OC)c1OC,7.5
15,CC1C/C(=N/NC(=O)c2cccs2)CC(C)(C)C1 (stereo not shown),6.43
16,CCOC(=O)C1CCN(C(=O)CCc2c(C)nc3cc(-c4ccc(OC)cc4OC)nn3c2C)CC1,-10.6
17,CC(=O)Nc1ccc2c(c1)nc1n2CCN(C(C)c2ccccc2)C1 (stereo not shown),16.2
18,CCOC(=O)c1ccc2c(c1)C1C=CCC1C(C(=O)OCC)N2 (stereo not shown),7.2
19,O=C(CSc1nc2ccccc2[nH]1)N1c2ccccc2Sc2ccccc21,13.1
20,COc1ccc(-c2nc(CS(=O)CC(=O)NCc3ccc4c(c3)OCO4)c(C)o2)cc1OC (stereo not shown),6.47
21,O=c1c2ccccc2nc2c3ccccc3cnn12,-2.4
22,Cc1occc1C(=O)NCCc1cccc(Cl)c1,8.4

row,Compound,"hERG current change (%, negative = inhibition) at 1uM [%]"
1,C/C(=N\NC(=O)c1ccc(OC2CCCC2)cc1)c1ccc(C)s1,7.46
2,Cc1nc(-c2ccc(Cl)cc2)sc1C(=O)NN,10.9
3,CC(=O)c1ccc(OCCn2c(SCC(=O)O)nc3ccccc32)cc1,10.1
4,O=C(CSc1ncnc2scc(-c3ccccc3)c12)N1CCN(Cc2ccc3c(c2)OCO3)CC1,8.81
5,Cc1ccc(NC(=O)CSCC(=O)NC2CCCCC2)cc1,-5.91
6,O=C(COC(=O)/C=C/c1ccc(Cl)cc1)Nc1ccc2[nH]c(=O)[nH]c2c1,21
7,COC(=O)c1ccccc1NC(=O)CSc1nc2ccccc2c(=O)[nH]1,15.7
8,Cc1ccc(Nc2c(-c3ccco3)nc3ccccn23)cc1,-27.5
9,N#C/C(=C\c1ccccc1)C(=O)Nc1cccnc1,8.08
10,Cc1ccc(C(=O)NCC(=O)OCC(=O)N(CC(C)C)c2c(N)n(Cc3ccccc3)c(=O)[nH]c2=O)cc1C,20.4
11,CCCCNC(=S)N1CCN(C(c2ccccc2)c2ccccc2)CC1,12.7
12,CC(=O)Nn1c(COc2ccccc2C)nc2ccccc2c1=O,0.242
13,O=C(CNc1cc(S(=O)(=O)N2CCOCC2)ccc1NCC1CCCO1)Nc1cccc(F)c1 (stereo not shown),8.71
14,CCOc1ccc2ncc(S(=O)(=O)c3ccccc3)c(N3CCN(c4ccc(OC)cc4)CC3)c2c1,1.95
15,COC(=O)CC1=Nc2ccccc2NC(=O)C1,17.9
16,Cc1ccc(OCc2nnc(SCC(=O)Nc3ncc(C)s3)o2)cc1,9.37
17,Cn1ccnc1Sc1nc2c(c(=O)n(C)c(=O)n2C)n1C,5.82
18,CS(=O)(=O)NCc1ccc(C(=O)NCCOc2ccccc2)cc1,1.82
19,CCn1c(O)c(N=NC(=O)c2ccc(CSc3nncn3C)cc2)c2ccccc21,13.3
20,O=C(NCC(c1ccco1)N1CCN(c2ccccc2F)CC1)C(=O)NC1CC1 (stereo not shown),5.07
21,CC(C)(c1ccccc1)c1ccc(OCC(O)CNC2CCN(Cc3ccccc3)CC2)cc1.O=C(O)C(=O)O (stereo not shown),10.8
22,CC1CCN(S(=O)(=O)c2ccc(NC(=O)Cc3ccccc3)cc2)CC1,11.6
